Measurements reported in PubChem BioAssay AID1159614 (National Center for Advancing Translational Sciences (NCATS), 2016).
Among all 45,000 compounds or so, about 65 (0.1%) were called active. Calls come from the whole dose curve; as a rule, active = well fitted activation curve with a large enough effect; inconclusive = small, poorly fitted or top-dose-only effect; inactive = no such curve, though single readings can be large or run the other way. The list shows a part of the results.

Target: Galactocerebrosidase (Homo sapiens) (UniProt P54803)
Experiment: A Novel Cell-Based Assay to Identify Small Molecules for B -Galactocerebrosidase; note: 0% is about no effect; nearly all actives have a fitted effect of over 65% in size
Details: 145M-Twi-hGALC-G270D cells, HMU-beta-Gal fluorescence, 48 h; series mostly up to 57.5 µM; activation: at the top concentration
How it was run: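 qHTS, 1536-well; 145M-Twi-hGALC-G270D cells (WT line also made) in DMEM/F12 + 10% FBS; compound incubation on live cells; HMU-β-gal 0.1 mM final, pH 5.2, NaTC; carbonate stop; fluorescence increase = enhanced residual activity.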

UniProt P54803, sequence (P54803 whole entry, looked up): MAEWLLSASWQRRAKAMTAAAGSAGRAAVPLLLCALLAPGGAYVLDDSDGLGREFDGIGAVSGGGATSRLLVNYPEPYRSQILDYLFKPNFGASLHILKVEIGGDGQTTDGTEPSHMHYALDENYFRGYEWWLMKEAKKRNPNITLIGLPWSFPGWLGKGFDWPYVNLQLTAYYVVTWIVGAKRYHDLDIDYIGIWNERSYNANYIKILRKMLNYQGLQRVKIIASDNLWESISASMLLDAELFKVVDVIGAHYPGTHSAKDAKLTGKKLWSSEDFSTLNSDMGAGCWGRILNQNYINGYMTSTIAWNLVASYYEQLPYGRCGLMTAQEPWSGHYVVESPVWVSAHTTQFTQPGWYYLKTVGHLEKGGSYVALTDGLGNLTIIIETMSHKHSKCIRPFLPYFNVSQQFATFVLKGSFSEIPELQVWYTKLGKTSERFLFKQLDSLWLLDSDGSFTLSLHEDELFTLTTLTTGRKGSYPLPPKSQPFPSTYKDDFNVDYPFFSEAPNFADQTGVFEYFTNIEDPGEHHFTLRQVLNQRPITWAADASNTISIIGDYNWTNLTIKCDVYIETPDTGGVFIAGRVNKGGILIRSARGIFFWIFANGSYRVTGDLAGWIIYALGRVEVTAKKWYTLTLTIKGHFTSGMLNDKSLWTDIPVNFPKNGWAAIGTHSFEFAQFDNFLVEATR

Structure (SMILES)	activation
CC(=O)c1ccc(NC(=O)Cn2cc(S(=O)(=O)Cc3cccc(Cl)c3)c3ccccc32)cc1	inactive: -10.5%
CCc1nc2ccccc2n1CCCCOc1ccc(C)cc1	inactive: -15.3%
CCC1CN(C(=O)N2CCC(C(=O)NCCN(CC)CC)CC2)c2cc(C)ccc2O1 (configuration not stated)	inactive: -6.84%
Cc1ccc(N(CC(=O)Nc2cccc(Cl)c2)S(=O)(=O)c2cccs2)cc1	inactive: -9.11%
CCN(Cc1ccccc1)S(=O)(=O)c1ccc2c(c1)CC(C)N2C(=O)C1CCC1 (configuration not stated)	inactive: -16.7%
Oc1ccc(/C=C/c2cc(O)cc(O)c2)cc1	inactive: -11.2%
CC(=O)C1=C(c2ccc(Cl)cc2)N(C(C)=O)n2c(nnc2C2CCCCC2)S1	inactive: 0.526%
Cc1ccc(Cl)cc1N(C)C(=O)c1cn(C2CCCCC2)c(=O)c2c1c1ccccc1n2C	inactive: -14.5%
COc1cccc(CNC(=O)c2cc3c(=O)oc4ccc(C)cc4c3s2)c1	inactive: -22.2%
Cc1ccc2onc(CC(=O)Nc3ccc(C(C)C)cc3)c2c1	inactive: -16.1%
O=c1c2oc3ccccc3c2n(Cc2ccccc2F)c(=O)n1Cc1ccccc1	inactive: -15.2%
Cc1ccc2c(c1)N(CCC(=O)NCc1ccccc1Cl)C(=O)CO2	inactive: -6.6%
CCOc1ccc(OCC)c(NS(=O)(=O)c2ccc(-c3coc(C)n3)cc2)c1	inactive: -22.6%
Cn1c(=O)[nH]c(=O)c2c1nc(NCCc1ccccc1)n2Cc1ccc(F)cc1	inactive: -18.1%
COc1ccc(NC(=O)c2c(NC(=O)c3ccc(Br)cc3)sc3c2CCCC3)cc1	inactive: 8.73%
COc1ccc(-c2nnc(SCc3cccc(Cl)c3)o2)cc1	inactive: -1.32%
CC(=O)N1CCC(N(Cc2ccc(C)o2)C(=O)Nc2ccc(C)cc2)CC1	inactive: -8.57%
CCOc1ccccc1NC(=O)Cc1noc2ccc(C)cc12	inactive: -14.3%
CCOc1ccc2nc(NC(=O)c3nc(SC)ncc3Cl)sc2c1	inactive: -16%
COc1cc(NC(=O)c2cn(C3CCCC3)c(=O)c3c2c2ccccc2n3C)cc(OC)c1OC	inactive: -17.1%
Cc1ccc(O)c(NC(=O)c2cc(-c3ccccc3O)no2)c1	inactive: -17.4%
Cc1cc(NC(=O)Nc2nnc(N(C)Cc3ccccc3)s2)ccc1Br	inactive: -15.7%
Cn1cc(S(=O)(=O)N2CCOCC2)cc1C(=O)Nc1ccc(Cl)c(C(F)(F)F)c1	inactive: -4.59%
COc1cccc(C2C(C(=O)Nc3ccc(C)cc3C)=C(C)Nc3nc4ccccc4n32)c1OC (configuration not stated)	inactive: -3.04%
COc1ccc2nc(N(Cc3cccnc3)C(=O)C3CCCCC3)sc2c1	inactive: -3.25%

Structure (SMILES)	activation
COc1ccc(N2CCN(CCCNC(=O)Cn3c(-c4cccs4)cc4ccccc43)CC2)cc1	inactive: -12.6%
CCOc1ccc(CNS(=O)(=O)c2ccc(-c3coc(C)n3)cc2)cc1	inactive: -7.26%
Cc1nc2ccc(S(=O)(=O)N(C)CC(=O)Nc3cccc(C(F)(F)F)c3)cc2s1	inactive: 1.69%
CCOC(=O)c1cc(S(=O)(=O)N2CCN(c3ccccc3F)CC2)[nH]n1	inactive: -6.11%
CCCCNC(=O)c1cccc(-n2c(C)nc3cccnc32)c1	inactive: -17.4%
CC(NC(=O)C1CCN(c2nc3ccccc3nc2C(F)(F)F)CC1)c1ccccc1 (configuration not stated)	inactive: -4.1%
CCOc1cc(C(=O)N2CCn3c4c(c5cc(C)ccc53)CCCC42)cc(OCC)c1OCC (configuration not stated)	inactive: -10.1%
COc1ccc(N(C(=O)c2cccc(C)c2)S(=O)(=O)c2ccc(Cl)cc2)cc1	inactive: -18.2%
Fc1ccc2c(c1)-c1nc(-c3ccccc3)cc(-c3ccccc3)c1CO2	inactive: -10.5%
CCCCN1C(C(=O)c2ccccc2)=C(OC(C)=O)c2ccccc2S1(=O)=O	inactive: -12.5%
CN(C)c1ccc(CNC(=O)CCS(=O)(=O)c2ccc3c(c2)oc(=O)n3C)cc1	inactive: -12.4%
COc1ccc(NC(=O)CNC(=O)Cn2c(C)cc3ccccc3c2=O)cc1OC	inactive: -13.1%
O=C(Nc1sc2c(c1C(=O)N1CCCCC1)CCCC2)c1ccccc1Cl	inactive: -13%
Cc1noc(Cn2c(=O)c3cc4c(cc3n(CC(=O)Nc3ccccc3Br)c2=O)OCO4)n1	inactive: -14.5%
Cc1ccc2c(=O)cc(C(=O)Nc3sc4c(c3C(=O)NCc3ccccc3)CCCC4)oc2c1C	inactive: -12.7%
O=C(CN1C(=O)CCc2cc(S(=O)(=O)N3CCOCC3)ccc21)Nc1cccc(C(F)(F)F)c1	inactive: -3.87%
CCOc1cccc(C(=O)Nc2cc(-c3ccc(C)cc3)no2)c1	inactive: -21.2%
CCCCCCOc1ccc(C2C(=O)N(C3CCCCC3)CC(=O)N2CCCC)cc1 (configuration not stated)	inactive: -2.06%
CCCS(=O)(=O)N1CCCC(C(=O)NCCOC)C1 (configuration not stated)	inactive: -3.37%
Cc1ccccc1CNC(=O)CN(c1cccc(C)c1C)S(C)(=O)=O	inactive: 7.35%
CCCCN(CCCC)C1=C(C(=O)c2ccccc2)N(C)S(=O)(=O)c2ccccc21	inactive: -0.485%
CCOc1ccc(-c2nc(Cn3ccn4nc(-c5ccc(OCC)c(Cl)c5)cc4c3=O)c(C)o2)cc1	inactive: 14.5%
COc1ccccc1/C=C/c1nc(C#N)c(NCCc2ccccc2)o1	inactive: -9.06%
Cc1ccccc1Nc1cc(C(=O)NCc2cccs2)c2ccccc2n1	inactive: -9.92%
C=C(C)Cn1c(=O)c2c(nc3n2CCN3c2ccc(F)cc2)n(C)c1=O	inactive: -11.4%

Structure (SMILES)	activation
CCOc1ccc(NCc2cccn2-c2nnc(N3CCC(C(=O)NCCOC)CC3)s2)cc1	inactive: -5.57%
Cc1cc(=O)n2nc(N3CCC(C(=O)NCc4ccc(F)cc4)CC3)sc2n1	inactive: -12.2%
COc1ccc(Nc2ncc(C(=O)N3CCN(c4ccc(F)cc4)CC3)c3ccccc23)cc1	inactive: -5.59%
COc1ccc(C)cc1N(C)C(=O)c1c2c(nc3ccccc13)C(=O)N(C1CCCCC1)C2	inactive: -14.7%
COc1ccc(CNS(=O)(=O)c2ccc(-c3cnc(C4CC4)o3)cc2)cc1	inactive: -16.4%
Cc1cccc(OCCn2c(SCC(=O)O)nc3ccccc32)c1	inactive: -18.1%
CCOc1ccc(N(CC)S(=O)(=O)N2CCCC(C(=O)Nc3cc(Cl)ccc3OC)C2)cc1 (configuration not stated)	inactive: -10.9%
CCOC(=O)c1ccc(NC2SC(=O)N(Cc3cccc(C(=O)O)c3)C2=O)cc1 (configuration not stated)	inactive: -1.56%
COc1cc2nc(SCC(=O)Nc3ccccc3F)n3nc(-c4ccccc4)nc3c2cc1OC	inactive: -20.6%
CCN(CC)CCNC(=O)c1c(C)[nH]c(/C=C2\C(=O)Nc3ccc(F)cc32)c1C	inactive: -19.6%
COc1ccc(-c2nc3scc(CCNS(=O)(=O)c4ccc(NC(C)=O)cc4)n3n2)cc1	inactive: -9.98%
COc1ccccc1C(=O)N1CCN(Cc2cc(=O)oc3cc(C)ccc23)CC1	inactive: -9.46%
COc1ccc(-c2nc3ccc(NS(=O)(=O)c4ccc(Cl)cc4)cc3o2)cc1	inactive: -7.97%
Cc1ccc(CNC(=O)c2ccc(CSCc3ccccc3C)o2)cc1	inactive: -6.9%
CCOc1ccc(Cn2c(CNS(=O)(=O)c3cccc(Cl)c3)nc3cccnc32)cc1	inactive: -7.44%
CCc1ccc(NC(=O)CSc2nc3c(sc4ccccc43)c(=O)n2CCCOC(C)C)cc1	inactive: 20.9%
Cn1c(=O)[nH]c2cc(-c3noc(-c4cccc(Cl)c4)n3)ccc21	inactive: 0.979%
CCOc1cccc(C(=O)N(Cc2ccc(CC)cc2)C2CCS(=O)(=O)C2)c1 (configuration not stated)	inactive: -9.55%
CCCNC(=O)Cn1nc(-c2ccc(F)cc2)c2cnc3ccc(F)cc3c21	inactive: -16.8%
COc1ccccc1NC(=O)CSC1=Nc2ccccc2C2=NC(CCC(=O)NCc3cccs3)C(=O)N12 (configuration not stated)	inactive: -6.74%
COc1ccc(-n2cc(C(=O)NCc3ccccc3Cl)c3ccccc3c2=O)cc1	inactive: -3.54%
CCCCN(CC)C(=O)Cn1ncc2c3ccccc3n(CCC)c2c1=O	inactive: -6%
CCC(C)NC(=O)c1cccc(NC(=O)c2nsc3ccccc23)c1 (configuration not stated)	inactive: -12.1%
CC(Sc1cn(CCNC(=O)c2ccccc2F)c2ccccc12)c1ccccc1 (configuration not stated)	inactive: -40.9%
CCN(CCCNC(=O)CSc1cc(=O)n(CC)c2ccccc12)c1cccc(C)c1	inactive: -7.43%

Structure (SMILES)	activation
Cc1ccc(NC(=O)c2c(C)oc3nc(C)nc(N4CCCC4)c23)c(C)c1	inactive: -13.8%
Cc1ccc(C)c(OCC(=O)Nc2ccc(S(=O)(=O)Nc3onc(C)c3C)cc2)c1C	inactive: -15.1%
CCC(C(=O)Nc1ccccc1OC)n1nc(C)c2sc3ccccc3c2c1=O (configuration not stated)	inactive: -3.67%
O=S(=O)(c1ccc(F)cc1)N(Cc1nc(-c2ccc(Cl)cc2)no1)C1CCCCC1	inactive: -8.21%
COC(=O)c1ccc(NC(=O)CSc2ncc3c(n2)-c2cc(Cl)ccc2N(Cc2ccccc2)S3(=O)=O)cc1	inactive: -11.2%
COc1ccc(C)cc1NC(=O)Cn1c(=O)ccc2cc(S(=O)(=O)N3CCC(C)CC3)ccc21	inactive: -0.988%
CCOc1ccc(CCNC(=O)c2ccc(CS(=O)Cc3cccc(Cl)c3)o2)cc1 (configuration not stated)	inactive: 1.06%
COc1ccc(NC(=O)c2c(NCc3sccc3C)sc3c2CCCCC3)c(OC)c1	inactive: -13.8%
Cc1ccc2c(=O)c(C(=O)c3ccc(Cl)cc3)cn(CC(=O)NC3CCCCC3)c2n1	inactive: -16.4%
COc1ccc2c(c1)c(=O)c(S(=O)(=O)c1ccc(C)cc1)cn2Cc1ccccc1C	inactive: 0.459%
COC(=O)c1sccc1S(=O)(=O)N(CC(=O)Nc1c(C)cccc1C)c1ccc(C)c(C)c1	inactive: -9.58%
COC(=O)C(C)n1nnc2sc(-c3ccccc3)cc2c1=O (configuration not stated)	inactive: -8.43%
Cc1ccc(NC(=O)CCC(=O)N2CCSc3ccccc32)cc1Cl	inactive: -6.67%
CCOC(=O)N1CCc2c(sc3c2c(=O)n(Cc2ccccc2)c(=O)n3CC(=O)Nc2ccc(C)c(C)c2)C1	inactive: -9.95%
CCC(C(=O)Nc1cc(F)ccc1F)n1nc(-c2cc(C)ccc2C)ccc1=O (configuration not stated)	inactive: -3.41%
COc1ccc(Br)cc1C(=O)Nc1ccc(-c2nc3cc(Cl)ccc3o2)cc1	inactive: -8.82%
Cc1c(NC(=O)c2cccc3c(Cl)cccc23)cccc1-c1nc2ccccc2o1	inactive: -6.94%
O=C(CCS(=O)(=O)c1cc(Br)cc2c1N(C(=O)C1CC1)CC2)NCc1ccccc1Cl	inactive: -7.34%
Cc1c(NC(=O)C(C)(C)Oc2ccc(Cl)cc2)cccc1-c1nc2ncccc2o1	inactive: -11.7%
CC1=C(C(=O)NCc2ccccc2C)C2(CCCCC2)OC1=O	inactive: 1.34%
CC(=O)c1ccc(NC(=O)Cn2cc(S(=O)(=O)Cc3ccccc3Cl)c3ccccc32)cc1	inactive: 1.29%
Cc1c(Cl)cccc1NC(=O)Nc1nnc(N(C)Cc2ccccc2)s1	inactive: 0.12%
